{"source": "the supplement of paper PMC8728848", "binders": {"B1": {"name": "Regenerating Gene I (Homo sapiens), P05451 (protein)", "chain": "MAQTSSYFMLISCLMFLSQSQGQEAQTELPQARISCPEGTNAYRSYCYYFNEDRETWVDADLYCQNMNSGNLVSVLTQAEGAFVASLIKESGTDDFNVWIGLHDPKKNRRWHWSSGSLVSYKSWGIGAPSSVNPGYCVSLTSSTGFQKWKDVPCEDKFSFVCKFKN"}}, "test_in_all_cases": "glycan array binding signal (z-score within array); higher = stronger binding", "settings_in_all_cases": "glycan notation: IUPAC condensed, linker removed", "key": {"GlcNAc(b1-6)GalNAc": {"target": "GlcNAc(b1-6)GalNAc", "how_it_was_run": "(§1)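 Glycan array data came from 3228 arrays in the Consortium for Functional Glycomics database, and only arrays with an available protein sequence were kept. Glycan names were put into IUPAC-condensed notation, and columns mapping to the same glycan were averaged. The binding signal is a within-array Z-score, averaged across arrays of one protein sequence run at different concentrations or buffers and across linkers. A negative Z-score can be read as non-binding.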"}, "GlcNAc3Prop(b1-4)GlcNAc": {"target": "GlcNAc3Prop(b1-4)GlcNAc", "how_it_was_run": "as §1"}, "Kdn(a2-3)Gal(b1-3)GlcNAc": {"target": "Kdn(a2-3)Gal(b1-3)GlcNAc", "how_it_was_run": "as §1"}, "Kdn(a2-3)Gal(b1-4)GlcNAc": {"target": "Kdn(a2-3)Gal(b1-4)GlcNAc", "how_it_was_run": "as §1"}, "[1]": {"target": "Man(a1-2)Man(a1-2)Man(a1-3)Man", "how_it_was_run": "as §1"}, "[2]": {"target": "Man(a1-2)Man(a1-2)Man(a1-6)[Man(a1-3)]Man", "how_it_was_run": "as §1"}, "Man(a1-2)Man(a1-3)Man": {"target": "Man(a1-2)Man(a1-3)Man", "how_it_was_run": "as §1"}, "[3]": {"target": "Man(a1-2)Man(a1-3)[Man(a1-2)Man(a1-6)]Man", "how_it_was_run": "as §1"}, "[4]": {"target": "Man(a1-2)Man(a1-3)[Man(a1-2)Man(a1-6)]Man(a1-6)[Man(a1-2)Man(a1-2)Man(a1-3)]Man", "how_it_was_run": "as §1"}, "[5]": {"target": "Man(a1-2)Man(a1-3)[Man(a1-2)Man(a1-6)]Man(a1-6)[Man(a1-2)Man(a1-2)Man(a1-3)]Man(b1-4)GlcNAc(b1-4)GlcNAc", "how_it_was_run": "as §1"}, "[6]": {"target": "Man(a1-2)Man(a1-3)[Man(a1-6)]Man(a1-6)[Man(a1-2)Man(a1-3)]Man(b1-4)GlcNAc(b1-4)GlcNAc", "how_it_was_run": "as §1"}, "[7]": {"target": "Man(a1-2)Man(a1-6)[Man(a1-3)]Man(a1-6)[Man(a1-2)Man(a1-2)Man(a1-3)]Man", "how_it_was_run": "as §1"}, "[8]": {"target": "Man(a1-2)Man(a1-6)[Man(a1-3)]Man(a1-6)[Man(a1-2)Man(a1-2)Man(a1-3)]Man(b1-4)GlcNAc(b1-4)GlcNAc", "how_it_was_run": "as §1"}, "Man(a1-3)[Man(a1-6)]Man": {"target": "Man(a1-3)[Man(a1-6)]Man", "how_it_was_run": "as §1"}, "[9]": {"target": "Man(a1-3)[Man(a1-6)]Man(a1-6)[Man(a1-2)Man(a1-3)]Man(b1-4)GlcNAc(b1-4)GlcNAc", "how_it_was_run": "as §1"}, "[10]": {"target": "Man(a1-3)[Man(a1-6)]Man(a1-6)[Man(a1-3)]Man", "how_it_was_run": "as §1"}, "[11]": {"target": "Man(a1-3)[Man(a1-6)]Man(a1-6)[Man(a1-3)]Man(b1-4)GlcNAc(b1-4)GlcNAc", "how_it_was_run": "as §1"}, "[12]": {"target": "Man(a1-3)[Man(a1-6)]Man(b1-4)GlcNAc(b1-4)GlcNAc", "how_it_was_run": "as §1"}, "Man(a1-6)Man": {"target": "Man(a1-6)Man", "how_it_was_run": "as §1"}, "Man(b1-4)GlcNAc": {"target": "Man(b1-4)GlcNAc", "how_it_was_run": "as §1"}, "Neu5Ac(a2-3)Gal": {"target": "Neu5Ac(a2-3)Gal", "how_it_was_run": "as §1"}, "[13]": {"target": "Neu5Ac(a2-3)Gal(b1-3)GalNAc", "how_it_was_run": "as §1"}, "[14]": {"target": "Neu5Ac(a2-3)Gal(b1-3)GalNAc(b1-3)Gal(a1-4)Gal(b1-4)Glc", "how_it_was_run": "as §1"}, "[15]": {"target": "Neu5Ac(a2-3)Gal(b1-3)GalNAc(b1-3)Gal(b1-4)GlcNAc", "how_it_was_run": "as §1"}, "[16]": {"target": "Neu5Ac(a2-3)Gal(b1-3)GalNAc(b1-4)[Neu5Ac(a2-3)]Gal(b1-4)Glc", "how_it_was_run": "as §1"}, "[17]": {"target": "Neu5Ac(a2-3)Gal(b1-3)GalNAc6S", "how_it_was_run": "as §1"}, "[18]": {"target": "Neu5Ac(a2-3)Gal(b1-3)GlcNAc", "how_it_was_run": "as §1"}, "[19]": {"target": "Neu5Ac(a2-3)Gal(b1-3)GlcNAc(b1-3)Gal(b1-3)GlcNAc", "how_it_was_run": "as §1"}, "[20]": {"target": "Neu5Ac(a2-3)Gal(b1-3)GlcNAc6S", "how_it_was_run": "as §1"}, "[21]": {"target": "Neu5Ac(a2-3)Gal(b1-3)[Fuc(a1-4)]GlcNAc", "how_it_was_run": "as §1"}, "[22]": {"target": "Neu5Ac(a2-3)Gal(b1-3)[Fuc(a1-4)]GlcNAc(b1-3)Gal(b1-4)[Fuc(a1-3)]GlcNAc", "how_it_was_run": "as §1"}, "[23]": {"target": "Neu5Ac(a2-3)Gal(b1-3)[Neu5Ac(a2-3)Gal(b1-4)]GlcNAc", "how_it_was_run": "as §1"}, "[24]": {"target": "Neu5Ac(a2-3)Gal(b1-3)[Neu5Ac(a2-6)]GalNAc", "how_it_was_run": "as §1"}, "Neu5Ac(a2-3)Gal(b1-4)Glc": {"target": "Neu5Ac(a2-3)Gal(b1-4)Glc", "how_it_was_run": "as §1"}, "[25]": {"target": "Neu5Ac(a2-3)Gal(b1-4)GlcNAc", "how_it_was_run": "as §1"}, "[26]": {"target": "Neu5Ac(a2-3)Gal(b1-4)GlcNAc(b1-2)Man(a1-3)[GlcNAc(b1-2)Man(b1-4)GlcNAc(b1-2)Man(a1-6)]Man(b1-4)GlcNAc(b1-4)GlcNAc", "how_it_was_run": "as §1"}, "[27]": {"target": "Neu5Ac(a2-3)Gal(b1-4)GlcNAc(b1-2)Man(a1-3)[Neu5Ac(a2-6)Gal(b1-4)GlcNAc(b1-2)Man(a1-6)]Man(b1-4)GlcNAc(b1-4)GlcNAc", "how_it_was_run": "as §1"}, "[28]": {"target": "Neu5Ac(a2-3)Gal(b1-4)GlcNAc(b1-3)Gal(b1-3)GlcNAc", "how_it_was_run": "as §1"}, "[29]": {"target": "Neu5Ac(a2-3)Gal(b1-4)GlcNAc(b1-3)Gal(b1-4)GlcNAc", "how_it_was_run": "as §1"}, "[30]": {"target": "Neu5Ac(a2-3)Gal(b1-4)GlcNAc(b1-3)Gal(b1-4)GlcNAc(b1-3)Gal(b1-4)GlcNAc", "how_it_was_run": "as §1"}, "[31]": {"target": "Neu5Ac(a2-3)Gal(b1-4)GlcNAc(b1-3)Gal(b1-4)[Fuc(a1-3)]GlcNAc", "how_it_was_run": "as §1"}, "[32]": {"target": "Neu5Ac(a2-3)Gal(b1-4)GlcNAc(b1-6)[Gal(b1-3)]GalNAc", "how_it_was_run": "as §1"}, "[33]": {"target": "Neu5Ac(a2-3)Gal(b1-4)GlcNAc(b1-6)[Neu5Ac(a2-3)Gal(b1-3)]GalNAc", "how_it_was_run": "as §1"}, "[34]": {"target": "Neu5Ac(a2-3)Gal(b1-4)GlcNAc6S", "how_it_was_run": "as §1"}}, "note": "This is one part of the list.", "data": [{"binder": "B1", "values": [{"measurement": "glycan array binding signal (z-score)", "setting": "GlcNAc(b1-6)GalNAc", "result": 0.245}, {"measurement": "glycan array binding signal (z-score)", "setting": "GlcNAc3Prop(b1-4)GlcNAc", "result": -0.533}, {"measurement": "glycan array binding signal (z-score)", "setting": "Kdn(a2-3)Gal(b1-3)GlcNAc", "result": -0.128}, {"measurement": "glycan array binding signal (z-score)", "setting": "Kdn(a2-3)Gal(b1-4)GlcNAc", "result": -0.443}, {"measurement": "glycan array binding signal (z-score)", "setting": "[1]", "result": -0.051}, {"measurement": "glycan array binding signal (z-score)", "setting": "[2]", "result": -0.34}, {"measurement": "glycan array binding signal (z-score)", "setting": "Man(a1-2)Man(a1-3)Man", "result": 0.403}, {"measurement": "glycan array binding signal (z-score)", "setting": "[3]", "result": -0.267}, {"measurement": "glycan array binding signal (z-score)", "setting": "[4]", "result": 0.044}, {"measurement": "glycan array binding signal (z-score)", "setting": "[5]", "result": -0.271}, {"measurement": "glycan array binding signal (z-score)", "setting": "[6]", "result": 0.057}, {"measurement": "glycan array binding signal (z-score)", "setting": "[7]", "result": 0.234}, {"measurement": "glycan array binding signal (z-score)", "setting": "[8]", "result": -0.475}, {"measurement": "glycan array binding signal (z-score)", "setting": "Man(a1-3)[Man(a1-6)]Man", "result": 7.74}, {"measurement": "glycan array binding signal (z-score)", "setting": "[9]", "result": -0.594}, {"measurement": "glycan array binding signal (z-score)", "setting": "[10]", "result": -0.537}, {"measurement": "glycan array binding signal (z-score)", "setting": "[11]", "result": -0.447}, {"measurement": "glycan array binding signal (z-score)", "setting": "[12]", "result": -0.413}, {"measurement": "glycan array binding signal (z-score)", "setting": "Man(a1-6)Man", "result": -0.213}, {"measurement": "glycan array binding signal (z-score)", "setting": "Man(b1-4)GlcNAc", "result": -0.407}, {"measurement": "glycan array binding signal (z-score)", "setting": "Neu5Ac(a2-3)Gal", "result": -0.293}, {"measurement": "glycan array binding signal (z-score)", "setting": "[13]", "result": -0.281}, {"measurement": "glycan array binding signal (z-score)", "setting": "[14]", "result": -0.473}, {"measurement": "glycan array binding signal (z-score)", "setting": "[15]", "result": -0.453}, {"measurement": "glycan array binding signal (z-score)", "setting": "[16]", "result": -0.488}, {"measurement": "glycan array binding signal (z-score)", "setting": "[17]", "result": 0.98}, {"measurement": "glycan array binding signal (z-score)", "setting": "[18]", "result": -0.139}, {"measurement": "glycan array binding signal (z-score)", "setting": "[19]", "result": 0.053}, {"measurement": "glycan array binding signal (z-score)", "setting": "[20]", "result": -0.09}, {"measurement": "glycan array binding signal (z-score)", "setting": "[21]", "result": -0.093}, {"measurement": "glycan array binding signal (z-score)", "setting": "[22]", "result": 5.84}, {"measurement": "glycan array binding signal (z-score)", "setting": "[23]", "result": -0.261}, {"measurement": "glycan array binding signal (z-score)", "setting": "[24]", "result": -0.221}, {"measurement": "glycan array binding signal (z-score)", "setting": "Neu5Ac(a2-3)Gal(b1-4)Glc", "result": 0.004}, {"measurement": "glycan array binding signal (z-score)", "setting": "[25]", "result": 0.016}, {"measurement": "glycan array binding signal (z-score)", "setting": "[26]", "result": -0.426}, {"measurement": "glycan array binding signal (z-score)", "setting": "[27]", "result": -0.536}, {"measurement": "glycan array binding signal (z-score)", "setting": "[28]", "result": -0.622}, {"measurement": "glycan array binding signal (z-score)", "setting": "[29]", "result": -0.379}, {"measurement": "glycan array binding signal (z-score)", "setting": "[30]", "result": -0.184}, {"measurement": "glycan array binding signal (z-score)", "setting": "[31]", "result": -0.517}, {"measurement": "glycan array binding signal (z-score)", "setting": "[32]", "result": -0.556}, {"measurement": "glycan array binding signal (z-score)", "setting": "[33]", "result": -0.614}, {"measurement": "glycan array binding signal (z-score)", "setting": "[34]", "result": -0.126}]}]}
